Experimental data as given in a collection of fitness landscapes (doi:10.1016/j.celrep.2020.107928).
The full ranking holds about 81,000 sequences; the median of “one-hybrid fitness for binding NBS DNA” is about -0.1, and the highest 2% start at about 0.36. The list shows a part of the results.

B1: Caulobacter ParB omega fusion; a variant is named by its letters at X, in order, B8GW30 (parent)
chain: MESVVVGEPGMSEGRRGLGRGLSALLGEVDAAPAQAPGEQLGGSREAPIEILQRNPDQPRRTFREEDLEDLSNSIREKGVLQPILVRPSPDTAGEYQIVAGERAWRAAQRAGLKTVPIMVRELDDLAVLEIGIIENVQRADLNVLEEALSYKVLMEKFERTQENIAQTIGKSXSHVANXMRLLXLPDEVQSYLVSGELTAXHARAIAAAADPVALAKQIIEGGLSVRETEALARKAPNLSAGKSKGGRPPRVKDTDTQALESDLSSVLGLDVSIDHRGSTGTLTITYATLEQLDDLCNRLTRGI

Variants of: B1
Assay: one-hybrid fitness for binding NBS DNA (the Noc-binding site; scaled: cognate 1, non-cognate 0); higher = stronger binding
Settings: with NBS DNA site
In short: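 Values were rescaled so that cognate is 1 and non-cognate is 0. Each is a fitness, the log change in a variant's read ratio to wild type from Illumina reads of plasmids before and after selection, with three replicate libraries pooled and variants under 10 reads dropped. Selection of the Caulobacter ParB libraries, four specificity codons randomised, used E. coli USO with a HIS3 reporter, site 19 bp from the promoter, on M9-minus-histidine with 0.1 mM IPTG and 5 mM 3-AT for 48 hours at 37°C.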

one-hybrid fitness for binding NBS DNA, ≤ 0.2:
MIPN
GYNS
KFTS
MVTQ
SPLC
IIHG
RMGY
WRFL
EASR
RYLQ
QSFM
DTCC
FGIS
TPIF
ERRA
QDAN
YNTR
PGAR
MQIS
LQRF
RCWD
IKWS
YPHS
KRGQ
RLVN
ERMC
CPPC
GEMI
IVQV
KMFR
AWTA
VLRK
LNET
RHPW
ATHL
KWPN
NYEV
RSFQ
RWQG
QQYK
PRMF
CTSE
GYQV
HRAE
DLAE
HKLN
DSNN
KRSP
DSCR
SKNW
FNSV
AAGG
PDSP
VAGR
HAYR
SWQR
AYCR
LCHI
HSGS
QSSE
DLCS
RVYC
NVPR
YMQL
PHWG
PVWV
APFR
GSER
VNFP
PEYV
YANC
LGHL
VHMT
IPLI
HMLW
PALQ
KNSC
GMHG
APVR
YMVT
CVDC
GTNL
SRTM
MQSP
